Results from PubChem BioAssay AID1347073 (National Center for Advancing Translational Sciences (NCATS), 2019).
Among all 45,000 compounds or so, about 200 (0.44%) were called active. Not shown: some 7% with an inconclusive outcome. The call rests on the fitted dose curve; in most records, active means well fitted activation curve with a large enough effect; inconclusive means small, poorly fitted or top-dose-only effect; inactive means no such curve, though single readings can be large or run the other way. The list shows a part of the results.

test: qHTS of TDP-43 Inhibitors: NCGC Sytravon Library Screen; conditions: yeast TDP-43 toxicity rescue, BacTiter-Glo growth, 24 h; series mostly up to 46.1 µM; growth rescue (activation): at the top concentration; further: 0% is about no effect; nearly all actives have a fitted effect of over 55% in size
Summary of the method: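 TDP-43-expressing yeast, pregrown in raffinose, seeded at OD600 0.02 in galactose medium with compound for 24 hr at 30 deg C. Growth read by BacTiter-Glo luminescence, so rescue of toxicity appears as activation.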

Row | SMILES | growth rescue (activation)
1 | CC1(C(=O)NS(=O)(=O)c2cccc(C#N)c2)CCN1C(=O)CC1CCCC1 (stereo not given) | inactive: 12.5%
2 | CC(=O)Nc1ccc(C2(c3ccc(NC(C)=O)cc3)C(=O)Nc3ccccc32)cc1 | inactive: 2.83%
3 | COc1ccc(NS(=O)(=O)c2ccc3nc(COc4ccc(Cl)c(C)c4)[nH]c3c2)cc1 | inactive: -4.02%
4 | Cc1ccc(NC(=O)Cc2nnc(SCC(=O)NC3CCCC3)n2C)cc1 | inactive: 0.569%
5 | COC(=O)c1c(NC(=O)COC(=O)CNC(=O)C2CCCCC2)sc(C)c1C | inactive: 14%
6 | O=C(Nc1ccc(S(=O)(=O)N2CCCC2)cc1)c1ccc(CN2CCOCC2)cc1 | inactive: 14.7%
7 | CN1CCN(c2nc3c(c(=O)n(C)c(=O)n3C)n2CCSc2nnnn2-c2ccccc2)CC1 | inactive: -8.67%
8 | CC(=O)Nc1ccc(Nc2nc(C)c([N+](=O)[O-])c(Nc3ccccc3)n2)cc1 | inactive: -20.9%
9 | CCN1C(=O)/C(=C/c2nc3ccccc3c(=O)n2-c2ccccc2)c2ccccc21 | inactive: -16.8%
10 | Cc1ccc(C(OCC(O)CNC(CO)C(O)c2ccc([N+](=O)[O-])cc2)c2ccccc2)cc1 (stereo not given) | inactive: 7.55%
11 | O=C(O)CC1S/C(=N\N=C2CCCCCC2)N(c2ccccc2)C1=O (stereo not given) | inactive: -36.2%
12 | COc1ccccc1C(=O)NC1CCCc2ccccc21 (stereo not given) | inactive: 4.09%
13 | O=C(COC(=O)c1ccc(Cl)nc1)Nc1ccc(S(=O)(=O)N2CCCC2)cc1 | inactive: -1.12%
14 | C(=N\Nc1ccccn1)/c1c[nH]c2ccccc12 | inactive: 4%
15 | COC(=O)c1ccc(CSc2nnc(-c3ccccc3)n2C)o1 | inactive: 13.4%
16 | CC(=O)Nc1cccc(-c2ccnc3c2CC(C(=O)Nc2cccc(NS(C)(=O)=O)c2)O3)c1 (stereo not given) | inactive: 11.9%
17 | Cc1sc(NC(=O)CCC(=O)O)c(C#N)c1C | inactive: 9.36%
18 | COc1ccc(CCNC(=O)CNC(=O)c2ccco2)cc1 | inactive: 0.974%
19 | C[C@@H](N)C(=O)N[C@H]1CCC2C3CC=C4C[C@@H](O)CC[C@]4(C)C3CC[C@@]21C (stereo not given in full) | inactive: -0.616%
20 | CCOc1cc(C(=O)OCC(=O)NCc2ccco2)cc(OCC)c1OCC | inactive: 22.9%
21 | C=C(C)Cn1c2ccc(NC(=S)NCc3ccccc3F)cc2c(=O)n1C | inactive: 6.06%
22 | CCOC(=O)N1CCC(N2CCCC(C(=O)c3cccc(OC(C)C)c3)C2)CC1 (stereo not given) | inactive: -6.67%
23 | Cc1ccc(NP(=O)(c2ccc(N(C)C)cc2NC(=O)c2cccs2)N2CCOCC2)cc1Cl (stereo not given) | inactive: 10.2%
24 | O=C(O)Cn1nnc(-c2ccc(OCc3ccccc3Cl)cc2)n1 | inactive: 23.9%
25 | CCOc1ccc(/C=C/C(=O)Nc2cccc(C(C)=O)c2)cc1 | inactive: 27.2%
26 | CC1CCN(c2ccc(C(=O)Nc3nnc(C4CC4)s3)cc2[N+](=O)[O-])CC1 | inactive: 1.71%
27 | Cc1cc(C)c(C)c(S(=O)(=O)Nc2ccccc2C(=O)O)c1C | inactive: 5.73%

Row | SMILES | growth rescue (activation)
28 | O=C(Nc1nnc2n1CCS2)c1ccco1 | inactive: -1.25%
29 | COc1ccc(COC(=O)Nc2c(SC)nsc2SC)cc1 | inactive: 18.9%
30 | CCCOc1cccc(C2/C(=C(/O)c3ccccc3)C(=O)C(=O)N2CCN(C)C)c1 (stereo not given) | inactive: 32.5%
31 | CC(=O)Nc1ccc(NC2=C(Cl)C(=O)c3ccccc3C2=O)cc1 | inactive: 2.97%
32 | CCC(C)(C)NC(=O)C(c1ccc(F)cc1)N(Cc1ccccc1)C(=O)c1cnccn1 (stereo not given) | inactive: -18.8%
33 | CC1Oc2ccccc2N(CC(=O)NC2CCCCC2)C1=O (stereo not given) | inactive: 0.945%
34 | Cc1coc2cc3oc(=O)c(CC(=O)N(C)CC(=O)O)c(C)c3cc12 | inactive: 3.63%
35 | CCCc1cc(=O)[nH]c(SCCCCN2C(=O)c3ccccc3C2=O)n1 | inactive: 5.93%
36 | O=C(NCc1cc(Cl)cc(Cl)c1)c1ccc2sc([C@H]3C[C@H](O)[C@@H](CO)O3)nc2c1 | inactive: 14.8%
37 | COc1ccc(-c2nnc(Nc3ccc(S(=O)(=O)Nc4nccs4)cc3)c3ccccc23)cc1 | inactive: 0.919%
38 | COc1ccc(OC)c(S(=O)(=O)Nc2c(C)n(C)n(-c3ccccc3)c2=O)c1 | inactive: -7.08%
39 | CN1C(=O)[C@@H]2[C@@H]3C[C@@H]([C@H]4ON=C(c5ccc(Cl)cc5Cl)[C@@H]34)[C@@H]2C1=O | inactive: 26.9%
40 | Cc1ccc2nc(SCC(=O)Nc3ccc(F)cc3F)[nH]c2c1 | inactive: 1.39%
41 | COc1cc(NC(=S)NCCCN2CCOCC2)cc(OC)c1 | inactive: 9.34%
42 | CC1CCCCC1NC(=O)C1CCN(c2c3c(nc4ncnn24)CCC3)CC1 (stereo not given) | inactive: -3.25%
43 | Cc1ccc(C)c(Cn2c(CCCNC(=O)C3CCCCC3)nc3ccccc32)c1 | inactive: 0.546%
44 | Cc1cccc(NC(=S)NCCN2CCOCC2)c1C | inactive: 4.74%
45 | Cc1cc(C(=O)N2CCCC(C(=O)c3ccc4ccccc4c3)C2)n(C)n1 (stereo not given) | inactive: 8.77%
46 | COc1ccc(C)cc1NC(=O)C(Sc1nnc(-c2cccs2)o1)c1ccccc1 (stereo not given) | inactive: 10.6%
47 | Cc1ccc(NC(=O)C(=O)NCC2CCN(C(=O)c3cccc([N+](=O)[O-])c3)CC2)cc1 | inactive: -4.24%
48 | Cc1cccc(-n2cc3c(=O)n(C)c(=O)n(C)c3c2)c1 | inactive: -4.54%
49 | O=C(CN1C(=O)NC2(CCc3ccccc32)C1=O)NCCc1ccccc1 (stereo not given) | inactive: 28.7%
50 | Cc1ccccc1S(=O)(=O)NC(=O)C1(C)CCN1C(=O)CC1CCCC1 (stereo not given) | inactive: 11.4%
51 | O=C(Nc1cccc(F)c1)C1CCN(C(=O)Cc2ccccc2)CC1 | inactive: 18.2%
52 | CN(CC1COCCO1)c1nc2nonc2nc1N1CCSCC1 (stereo not given) | inactive: 9.78%
53 | COc1ccc(/C=N/NC(=O)C2COc3ccccc3O2)cc1OC (stereo not given) | inactive: 6.88%
54 | COc1ccc(-c2nc(CNS(=O)(=O)c3ccc(Br)cc3)cs2)cc1 | inactive: 17.3%

Row | SMILES | growth rescue (activation)
55 | CCN(C(=O)c1cc2c(C)nc3ccccc3c2o1)c1cc(Cl)ccc1OC | inactive: 14.6%
56 | Cc1cc(N/N=C/c2ccccc2O)nc(N2CCOCC2)n1 | inactive: 25%
57 | CCN(CC)C(=O)CSc1nnc(NC(=O)CCc2ccccc2)s1 | inactive: 11.7%
58 | CCC(CC)C(=O)Nc1c2c(nn1-c1ccc(C)cc1)CS(=O)(=O)C2 | inactive: -9.67%
59 | COc1cc(N=CC2=C(O)c3ccccc3C2=O)cc(OC)c1 | inactive: 1.15%
60 | CCCn1nc(C(=O)NNC(=O)c2cccc(C)c2)c2ccccc2c1=O | inactive: 2.38%
61 | CCN(CC)c1ccc(/C=N/NC(=O)Cc2nnc(NC(=O)Nc3ccccc3)s2)cc1 | inactive: 7.1%
62 | CC(=C/c1ccccc1)/C=N/n1c(-c2ccncc2)n[nH]c1=S | inactive: 14.3%
63 | O=C1c2cccc3cccc(c23)C(=O)N1CCN1CCN(CC(O)COCc2ccc(Cl)cc2)CC1 (stereo not given) | inactive: -22.3%
64 | O=C(O)c1cc(-c2ccc(/C=N/NC(=S)Nc3ccccc3)o2)ccc1Cl | inactive: 1.52%
65 | CCOC(=O)C1(Cc2ccccc2)CCCN(Cc2cccc(C(C)=O)c2)C1 (stereo not given) | inactive: 5.31%
66 | COc1cccc(C(=O)CC(=O)C(=O)Nc2cc(OC)ccc2OC)c1 | inactive: -15.3%
67 | CC(C)(C)N(Cc1ccccc1)C(=O)COC(=O)C1CCCCC1 | inactive: 35.7%
68 | CCN(C(=O)CSc1nc2ccc(Cl)cc2[nH]1)C1CCS(=O)(=O)C1 (stereo not given) | inactive: 17.4%
69 | COc1cc(C)ccc1OCC(=O)OCC(=O)c1ccc[nH]1 | inactive: 12.5%
70 | C=CCNc1nnnc2c1sc1nc(N3CCOCC3)c3c(c12)CCCC3 | inactive: 5.65%
71 | O=C(COC(=O)COc1ccccc1)Nc1cccnc1Cl | inactive: -0.977%
72 | O=C(CSc1nnc(C2COc3ccccc3O2)o1)N1CCCC1 (stereo not given) | inactive: -4.59%
73 | CN(Cc1nc2ccccc2[nH]1)C(=O)C1CCC(=O)N(C2CCCC2)C1 (stereo not given) | inactive: 13%
74 | O=C(Nc1ccc(C(=O)N2CCOCC2)cc1)Nc1cccc(Cl)c1 | inactive: 2.15%
75 | O=C(O)C1(Cc2nc3ccccc3[nH]2)CCCC1 | inactive: -21.5%
76 | Cn1nnc2c[n+](CC(=O)c3ccc4ccccc4c3)cc(Br)c21 | inactive: 14.7%
77 | COC(=O)c1c(C)nc(C)c(C(=O)OC)c1-c1ccc(OC)c(OC)c1 | inactive: -21%
78 | O=C(COC(=O)c1cc(=O)[nH]c(=O)[nH]1)Nc1ccccc1F | inactive: 9.69%
79 | CCc1nc2ccc(C(=O)NCCCn3ccnc3)cn2c1N(CC)Cc1cccc(Br)c1 | inactive: 12.1%
80 | O=S(=O)(c1ccc(Cl)c(NC(=S)N/N=C/c2c(F)cccc2F)c1)N1CCOCC1 | inactive: 14.8%
81 | COc1ccc(/C=C/CN2CCN(Cc3ccc(C)cc3)C(CCO)C2)cc1 (stereo not given) | inactive: 5.25%

Row | SMILES | growth rescue (activation)
82 | CCC(=O)/C(=C(/O)c1ccccc1)c1nc2ccccc2[nH]1 | inactive: 4.18%
83 | CN(Cc1nc(-c2ccccc2)no1)C(=O)c1ccco1 | inactive: 15%
84 | COC(=O)c1ccc(NC(=O)c2ccc[n+]([O-])c2)cc1 | inactive: 15%
85 | O=[N+]([O-])c1ccc(Cl)c(S(=O)(=O)/N=C(/c2ccccc2)N2CCOCC2)c1 | inactive: -1.44%
86 | O=C(NCc1ccco1)C1CC(O)CN1C(=O)Nc1ccccc1 (stereo not given) | inactive: -6.48%
87 | COc1ccc(Cc2nnc(Nc3ccc4c(c3)OCCO4)[nH]c2=O)cc1 | inactive: 14.5%
88 | CC1(C)CC(=O)C2=C(C1)NC(=O)NC2c1ccc(Cl)cc1 (stereo not given) | inactive: -8.12%
89 | Cc1ccc(C)c(Cn2nc(-c3cc(C)ccc3C)ccc2=O)c1 | inactive: -24.2%
90 | Cc1ccc(NC(=O)CCn2nnc3ccccc32)cc1 | inactive: -8.62%
91 | CCN(CC)C(=O)CN(C#N)c1nc(C)cc(C)n1 | inactive: 0.54%
92 | CCN(C(=O)COC(=O)[C@H](C)N=C1NS(=O)(=O)c2ccccc21)C1CCS(=O)(=O)C1 (stereo not given in full) | inactive: -6.4%
93 | O=C(Nc1ccc(Oc2ccccc2)nc1)C1CCN(Cc2ccco2)CC1 | inactive: -4.68%
94 | Cc1cccc2cc3c(NC(=O)C(C)(C)C)nn(CC(C)C)c3nc12 | inactive: 4.14%
95 | CC(=O)c1c(C)[nH]c(C(=O)Nc2ccccc2Cl)c1C | inactive: -10.8%
96 | Cc1ccc2cc(CN(c3ccc(C)c(C)c3)S(C)(=O)=O)c(=O)[nH]c2c1 | inactive: -15%
97 | CCC(C)[C@H](N)C(=O)NC[C@H]1CC[C@H](C(=O)N[C@@H](Cc2ccccc2)C(=O)O)CC1 (stereo not given in full) | inactive: -14.7%
98 | O=C(CC1NCCNC1=O)Nc1ccc(Cl)c(Cl)c1 (stereo not given) | inactive: 4.6%
99 | CCOC(=O)C1(Cc2ccccc2C(F)(F)F)CCN(C2CCCC2)CC1 | inactive: 6.45%
100 | COc1ccc(-c2cc(C(=O)N3CCN(c4ccccc4OC)CC3)no2)cc1OC | inactive: 3.18%
101 | O=c1c(Cl)c(Cl)cnn1Cc1nnc(-c2ccc(Cl)cc2)o1 | inactive: 3.74%
102 | CCCNC(=O)C1(C)CCN(C(=O)c2sccc2C)C1 (stereo not given) | inactive: 5.77%
103 | CCNC(=S)SCCOc1ccc(C)cc1 | inactive: 14.3%
104 | CC1CCCN(C(=O)COC(=O)Cc2c(F)cccc2Cl)C1 (stereo not given) | inactive: 10.9%
105 | CCOC(=O)C1CCN(c2ncnc3c2c(-c2ccccc2)cn3-c2ccccc2)CC1 | inactive: 28.4%
